From publication PMC10079162 (Nature Communications, 2023)

Biological target: T1, human serum albumin (Homo sapiens, UniProt P02768)
T1 construct: also called HSA
Experiment: BLI; format and conditions not told in the main text (methods are in the Supplementary Materials)
Conditions: both partners purified

B1: Nb.b201 A31D H53P T55G (VHH)
VHH: QVQLQESGGGLVQAGGSLRLSCAASGYISDDYYMGWYRQAPGKEREFVATITPGGNTYYADSVKGRFTISRDNAKNTVYLQMNSLKPEDTAVYYCAVLETRSYSFRYWGQGTQVTVSS
notes: also called triple mutant; source: HEK293 cells; obtained at high purity
- binding result: binds
